Reference: PubChem BioAssay AID504466 (National Center for Advancing Translational Sciences (NCATS), 2011)
In all, about 330,000 compounds went through this assay and about 4,200 (1.3%) were called active. The shares of active, inactive and inconclusive entries below differ from those in the screen. Calls come from the whole dose curve; as a rule, active = well fitted activation curve with a large enough effect; inconclusive = small, poorly fitted or top-dose-only effect; inactive = no such curve, though single readings can be large or run the other way. Where the call is inconclusive, the potency comes from a doubtful curve fit.

Experiment: qHTS screen for small molecules that induce genotoxicity in human embryonic kidney (HEK293T) cells expressing luciferase-tagged ELG1; note: nearly all actives have a fitted effect of over 60% in size
Details: HEK293T ELG1-luciferase reporter, luminescence, 16 h; series mostly up to 46 µM
Procedure, shortened: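 16 hr compound incubation (37 °C, 5% CO2) of HEK293T cells carrying luciferase-tagged ELG1; luciferase then measured by ONE-Glo luminescence after 30 min at RT.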
Potency is the fitted concentration of half-maximal effect; tags give direction and shape of the fitted curve.

| Structure (SMILES) | Potency |
| --- | --- |
| O=C(c1cnn(-c2ccccc2)c1)c1cc(F)ccc1O | inconclusive: 20.6 µM [activator, partial curve, poor fit] |
| CC(C)CCNC(=O)c1ccc2nc[nH]c2c1 | inconclusive: 25.9 µM [activator, partial curve, poor fit] |
| COc1cccc(Nc2ncnc3sc(C)cc23)c1 | inconclusive: 14.6 µM [activator, partial curve, poor fit] |
| C/C(=N\NC(=O)c1ccc2c(c1)OCO2)c1cccnc1 | inconclusive: 5.17 µM [activator, partial curve, poor fit] |
| Cc1ccc(-c2cnn3c(N4CCOCC4)cc(C)nc23)cc1 | inconclusive: 1.64 µM [activator, full curve, poor fit] |
| CCc1ccc2nc(NC(=O)CSCc3c(C)noc3C)sc2c1 | inactive |
| O=c1c2cc(F)ccc2sn1-c1ccccc1 | inactive |
| CCCCSC(=O)Nc1ccccc1 | inconclusive: 29.1 µM [activator, single point] |
| COC(=O)Cc1c(C)c2ccc(OC(C)C)cc2oc1=O | inactive |
| Cc1nc2nc(-c3ccccc3)[nH]n2c(=O)c1C | inconclusive: 20.6 µM [activator, single point] |
| CCOC(=O)C1CCN(C(=O)/C=C/c2ccc3c(c2)OCO3)CC1 | inconclusive: 2.91 µM [activator, partial curve] |
| CC(C)NC(=O)Nc1cccc2c1O[C@H](CN(C)C(=O)Nc1ccc(C(F)(F)F)cc1)[C@@H](C)CN([C@H](C)CO)C2=O | inactive |
| CCN(CCCNC(=O)CCCOc1cc(=O)n(C)c2ccccc12)Cc1ccccc1 | inconclusive: 20.6 µM [activator, single point] |
| COc1cc(S(=O)(=O)N2CCN(C(=O)c3ccccc3)CC2)c(OC)cc1Br | inactive |
| COc1ccc(Oc2nnnn2-c2ccccc2)cc1 | inactive |
| CCOC(=O)c1ccc(NC(=O)c2ccc[n+]([O-])c2)cc1 | inactive |
| CC(=O)c1ccc(NC(=O)CSc2nccn2CCc2ccccc2)cc1 | inconclusive: 10 µM [activator, partial curve, poor fit] |
| CCN(CC(=O)Nc1ccc(N2CCOCC2)cc1)C(=O)COc1ccccc1OC | inconclusive: 20.6 µM [activator, partial curve, poor fit] |
| CCCCCCCNC(=O)C1(CC2CC(c3ccc(Cl)cc3)=NO2)CCN(C(=O)c2cc(OCC)c(OCC)c(OCC)c2)CC1 (centres undefined) | inactive |
| O=C1/C(=C/c2ccc(O)c(O)c2)Oc2cc(O)ccc21 | active: 14.6 µM |
| Cc1cc(C)c(C#N)c(SCC(=O)Nc2ccccc2C(N)=O)n1 | inconclusive: 2.91 µM [activator, full curve, poor fit] |
| Cc1ccc(C(=O)Nc2ccccc2N2CCCCC2)cc1[N+](=O)[O-] | inactive |
| CCCOC(=O)c1sc2nc3c(cc2c1N)C(=O)CCC3 | inconclusive: 5.8 µM [activator, partial curve] |
| COc1cc2c(C#N)c(N3CCN(C)CC3)nc(N)c2c(N)n1 | inconclusive: 23.1 µM [activator, partial curve, poor fit] |
| COc1ccccc1CC(=O)NCc1csc(-c2cccs2)n1 | inactive |

| Structure (SMILES) | Potency |
| --- | --- |
| C=CCSC1=N/C(=C\C=C\c2ccco2)C(=O)S1 | inactive |
| COc1ccc(-c2csc(NC(=O)c3ccoc3C)n2)cc1 | inconclusive: 6.51 µM [activator, partial curve, poor fit] |
| CCOC(=O)c1ccc(NC(=O)C23CCC(C)(C(=O)O2)C3(C)C)cc1 (centres undefined) | inconclusive: 16.4 µM [activator, single point] |
| NNc1nc2c(F)cccc2s1 | inconclusive: 14.6 µM [activator, partial curve, poor fit] |
| CSc1ccccc1NC(=O)c1cc(C(C)C)on1 | active: 11.6 µM |
| Cc1csc(N/N=C\c2cccnc2)n1 | inconclusive: 10.3 µM [activator, partial curve, poor fit] |
| O=C1NC2=C(C(=O)CCC2)C(c2cccc([N+](=O)[O-])c2)N1 (centres undefined) | inactive |
| COc1cccc(/C=N/NC(=O)CNC(=O)C(c2ccccc2)c2ccccc2)c1O | inconclusive: 20.6 µM [activator, single point] |
| c1ccc2c(c1)CC/C2=N/Nc1nc2ccccc2[nH]1 | inconclusive: 2.31 µM [activator, single point] |
| O=C(/C=C\Nc1ccc2c(c1)OCO2)c1ccccn1 | inconclusive: 0.0651 µM [activator, full curve, poor fit] |
| CCc1ccc(/C=C(\C)C(=O)c2c(C)cc(C)[nH]c2=O)cc1 | inactive |
| C[n+]1nc(Nc2cccc3ccccc23)sc1-c1ccc(C(=O)O)cc1 | inactive |
| O=C(NCCCN1CCOCC1)C(=O)N/N=C/c1ccc2c(c1)OCO2 | inactive |
| CCOC(=O)CSc1nc(-c2ccc3c(c2)OCO3)ccc1C#N | inconclusive: 4.61 µM [activator, partial curve, poor fit] |
| CC(=O)N1CCN(c2ccc(NC(=O)c3ccc(F)cc3)cc2)CC1 | inactive |
| COc1ccc(C(=O)Nc2ccc3nc4n(c(=O)c3c2)CCCC4)cc1[N+](=O)[O-] | inconclusive: 5.17 µM [activator, partial curve, poor fit] |
| CCCCOc1ncnc2c1[nH]c1ccc(OC)cc12 | inconclusive: 0.231 µM [activator, full curve, poor fit] |
| COc1ccc(-c2nc3n(c2C)Cc2ccccc2-3)cc1 | active: 13 µM |
| COc1ccc(/C=N/NC(=O)c2cccc(COCC(F)(F)C(F)F)c2)cc1 | inactive |
| CC(=O)c1cccc(OCC(=O)N(C)CC(=O)NCc2ccco2)c1 | inactive |
| CCOc1ccc(NC(=O)c2ccc(NC(=O)CN3C(=O)C(=O)N(CC(C)C)C3=O)cc2)cc1 | inconclusive: 14.6 µM [activator, partial curve] |
| N#CCCN(C(=O)COC(=O)COc1ccccc1Cc1ccccc1)c1ccccc1 | inactive |
| Nc1nnc(SCC(=O)NNC(=O)c2ccccc2)s1 | inactive |
| c1cc(-c2noc(CC3CCCCC3)n2)ccn1 | inconclusive: 11.2 µM [activator, partial curve, poor fit] |
| CC1(C)CN(c2ccc(-c3ccnc4ncnn34)cc2)C1=O | active: 12.6 µM |

| Structure (SMILES) | Potency |
| --- | --- |
| Cc1nc(OCC(C)C)c2sc3nc4c(cc3c2n1)COC(C)(C)C4 | inconclusive: 6.51 µM [activator, partial curve] |
| O=c1oc2ccc(Cl)cc2nc1/C=C(\O)c1cccs1 | inconclusive: 16.4 µM [activator, single point] |
| Cc1cc(=O)oc2c(C)c(OCC(=O)N3CCN(C(=O)C4COc5ccccc5O4)CC3)ccc12 (centres undefined) | inactive |
| CCOC(=O)[C@@H]1[C@H]2COc3cc(OC)ccc3[C@@H]2N2C(=O)N(c3ccccc3)C(=O)[C@]12C | inactive |
| N#Cc1cc2c(nc1SCC(N)=O)CCCCC2 | inconclusive: 10 µM [activator, partial curve, poor fit] |
| Fc1cccc2sc(Nc3nc4cc5c(cc4s3)OCO5)nc12 | active: 7.31 µM |
| Cn1c(/C=N/Nc2nc3ccccc3[nH]2)nc2ccccc21 | active: 1.16 µM |
| COc1ccc(/C=C2\CCC/C(=C\C=N\N(C)C)C2=O)cc1 | inactive |
| Cc1ccc2oc(=O)n(CCCOc3ccccc3)c2c1 | inconclusive: 8.2 µM [activator, partial curve, poor fit] |
| COC(=O)c1ccc(NC(=O)Nc2ccccc2F)cc1 | inconclusive: 2.91 µM [activator, partial curve] |
| CCN(CC)CCn1c(NC(=O)c2ccc(C)cc2)nc2ccccc21 | inconclusive: 9.2 µM [activator, partial curve, poor fit] |
| Cc1ccc2c(CNCc3ccco3)cc(=O)oc2c1 | inconclusive: 14.6 µM [activator, partial curve, poor fit] |
| CCOC(=O)C1CCN(S(=O)(=O)c2ccc3c4c(cccc24)C(=O)N3CC)CC1 | inconclusive: 16.4 µM [activator, partial curve, poor fit] |
| Nc1cc2c(cc1C(=O)c1cccc(Br)c1)OCCO2 | inactive |
| CC1CCc2sc(C(=O)NNC(=S)NCC3CCCO3)cc2C1 (centres undefined) | inactive |
| CC1=C(CC(=O)c2ccccc2)C(=O)c2ccccc2C1=O | inconclusive: 14.6 µM [activator, partial curve, poor fit] |
| O=C1CCCC/C1=N\Nc1ccc(C2CCCCC2)cc1 | active: 4.61 µM |
| CCCc1cc(C(=O)NCc2ccco2)no1 | inconclusive: 23.1 µM [activator, partial curve, poor fit] |
| CCOC(=O)/C(=N\Nc1ncnc2ccccc12)c1ccc(OC)cc1 | inconclusive: 0.82 µM [activator, partial curve, poor fit] |
| Cc1ccc(S(=O)(=O)Nc2c(C)nn(C)c2C)cc1C | inconclusive: 25.9 µM [activator, partial curve, poor fit] |
| Cc1cc(-c2ccc(N3CCOCC3)cc2)nc2ccccc12 | inconclusive: 7.31 µM [activator, partial curve] |
| Cc1ncc(CO)c(CNc2ccc(-c3nc4ccccc4[nH]3)cc2)c1O | inconclusive: 9.2 µM [activator, partial curve] |
| CCC(=O)N1N=C(c2ccc(NS(C)(=O)=O)cc2)CC1c1ccc(C)cc1 (centres undefined) | inconclusive: 25.9 µM [activator, partial curve, poor fit] |
| O=c1/c(=C/c2ccccn2)sc2nc3ccccc3n12 | active: 0.82 µM |
